Assay results from the RNAGym collection of RNA variant scans (doi:10.7554/elife.90254).
Read counts are not given, so values of variants with three or more changes are uncertain.

B1: LINE1-mini (parent)
chain: GGCAGAGCUCAACACAGCGUGGCAAAGUGGCUGUGGCUAGACUGCC

Variants of: B1
Assay: self-cleavage, relative activity (ratio to wild type); higher = more cleavage; in vitro, sequencing; the parent is a self-cleaving ribozyme

| Variant | self-cleavage |
| --- | --- |
| GGCAGAGCUAAACACAGUGUGGCAAAGUGGCUGUGGCUAGACUGGC [C10A C18U C45G] | 0.26 |
| GGCAGAGCUAAACAAAGCGUGGCAAAGUGGCUGUGGCUAGAUAGCC [C10A C15A C42U U43A] | 0.04 |
| GGCAGAGCUAAACAAAGCGUGGCAAAGUGGCUAUGGCUAGACUGCC [C10A C15A G33A] | 0.04 |
| GGCAGAGCUAAACACAGCGUGGCAGAGUGGCUGUAGCUACACUGCC [C10A A25G G35A G40C] | 0.01 |
| GGCAGAGCUAAACACAGAGUGGCAAAGUCGCUGUGGCUAGACUGCC [C10A C18A G29C] | 0.06 |
| GGCAGAGCUAAACACAGCGUGCGAAAGUGGCUGUGGCUAGACUGCC [C10A G22C C23G] | 0.04 |
| GGCAGAGCUAAACACAACGUGGCAAAGUGGCUGUGGCUUGACUGCC [C10A G17A A39U] | 0.08 |
| GGCAGAGCUAAACACAGCUUGGUACAGUGGCUGUGUCUAGACUGCC [C10A G19U C23U A25C G36U] | 0.03 |
| GGCAGAGCUAAACACAGCGUGGCAAAGUGGCUGUGGCUCGACUGGC [C10A A39C C45G] | 0.02 |
| GGCAGAGCUAAACACAGCGUGGCAACGUGGCUGUGGUUUGACUGAC [C10A A26C C37U A39U C45A] | 0.01 |
| GGCAGAGCUAAACACAUCGUGGCAAAGUGGCUGUGGCUUGUCUGCC [C10A G17U A39U A41U] | 0.08 |
| GGCAGAGCUAAACACAGCCUGGCAAAGUUGCUUUGGCUAGACUGCC [C10A G19C G29U G33U] | 0.03 |
| GGCAGAGCUAAACAGCGCGUGGCAAAGUGGCUGUGGCUAGACUGCC [C10A C15G A16C] | 0.02 |
| GGCAGAGCUAAAUACAGCGUGGCAAAGUGGCUGUGGCUAAACUGCC [C10A C13U G40A] | 0.14 |
| GGCAGAGCUAAACACAGCGUGACAAAGUGGCUGCGGCUAGACUGCC [C10A G22A U34C] | 0.07 |
| GGCAGAGCUAAACAAAGCGUUGCAAAGUGGCUGUGGCUAGACUGCC [C10A C15A G21U] | 0.04 |
| GGCAGAGCUAAACACAGAGUGGCAAAGUGGCGGUGGCUAGACUGCC [C10A C18A U32G] | 0.02 |
| GGCAGAGCUAAACACAGUGUGGCAAAUUGGCCGUGGCUCGACUGCC [C10A C18U G27U U32C A39C] | 0.03 |
| GGCAGAGCUAAACACAGAGUGGCAAAGUGGCUGUGGCUAGACUGCA [C10A C18A C46A] | 0.02 |

| Variant | self-cleavage |
| --- | --- |
| GGCAGAGCUAAACAAAGCGUGGCAAUGUGGCUGUGGCUAGACUGCC [C10A C15A A26U] | 0 |
| GGCAGAGCUAAACAAAGCGUGGCAAGGUGGCUGUGGCUAGACUGCC [C10A C15A A26G] | 0 |
| GGCAGAGCUAAACACACCGUGGCAAAGUGGCUGUGGCUAGACUUCC [C10A G17C G44U] | 0.03 |
| GGCAGAGCUAAACACAGCGUGGCAACGUGGCUGUGGCUAGGCUGCC [C10A A26C A41G] | 0 |
| GGCAGAGCUAAACACAGCGUUGCAAAUUGGCUGUGGCUAGACUGCC [C10A G21U G27U] | 0 |
| GGCAGAGCUAAACAGAGCGUGGCUAAGUGGCAGUGGCUAGACUGCC [C10A C15G A24U U32A] | 0.01 |
| GGCAGAGCUAAACACAGGGUGGCAUAGUGGCUGUGGCUAGACUGCC [C10A C18G A25U] | 0.25 |
| GGCAGAGCUAAACACACCGUGGCACAGUGGCUUUGGCUAGAGUGCC [C10A G17C A25C G33U C42G] | 0 |
| GGCAGAGCUAAACACAGCGUGGCAAAGUGGCUGUGGCUGGACUACC [C10A A39G G44A] | 0.05 |
| GGCAGAGCUAAACACAGCGUGGCAAAGUGGCUGUGGCUAGUCUUCC [C10A A41U G44U] | 0 |
| GGCAGAGCUAAACAUAGUGUGGCAAAGUGGCUGUGGCUAGACUGCC [C10A C15U C18U] | 0.62 |
| GGCAGAGCUAAACACAGCUUGGCAAAGUGGCUGUGCCUAGACUGCC [C10A G19U G36C] | 0.03 |
| GGCAGAGCUAAACACAACGUGGCAAAGUGGCUGUGGCUAGACCCCC [C10A G17A U43C G44C] | 0.01 |
| GGCAGAGCUAAACACAGCGUGGCAAGGUGCAUGUGGCUAGGCAGCC [C10A A26G G30C C31A A41G U43A] | 0.01 |
| GGCAGAGCUAAACAGAGCGUGGUAAAGUGGCUGUGGCUAGACUGCC [C10A C15G C23U] | 0.03 |
| GGCAGAGCUAAAGACAGCGUGGCAGAGUGGCUGUGGCUAGACUGCC [C10A C13G A25G] | 0.02 |
| GGCAGAGCUAAACAUAGCGUGGCAAAGUGGCUUUGGCUAGAUUGCC [C10A C15U G33U C42U] | 0.03 |
| GGCAGAGCUAAAUACAGCGUGGCAAAGUGGCUGGGGCUAGACUGCC [C10A C13U U34G] | 0.02 |
| GGCAGAGCUAAACACAGCGUCACAAAGUGGCUGUGGCUAGACUGCC [C10A G21C G22A] | 0 |

| Variant | self-cleavage |
| --- | --- |
| GGCAGAGCUAAACACAGCAUGGCAAAGUGGCAGUAGCUAGACUUCG [C10A G19A U32A G35A G44U C46G] | 0.01 |
| GGCAGAGCUAAACACAGCGUAGCAAAGUUGCUGUGGCUAGACUGCC [C10A G21A G29U] | 0.08 |
| GGCAGAGCUAAACACAGCGUCGCUAAGUGGCUGUGGCUAGACUGCC [C10A G21C A24U] | 0.01 |
| GGCAGAGCUAAACACAGCUUGGCGAAGUGGCUGUGGCUAGACUGCC [C10A G19U A24G] | 0.08 |
| GGCAGAGCUAAACAUAGCGUGGCAAAGUGGCUGUGGCUCGAAGGCC [C10A C15U A39C C42A U43G] | 0.01 |
| GGCAGAGCUAAACACAGCGUUGCAAAGUGGCUGUGGCUAUACUACC [C10A G21U G40U G44A] | 0.06 |
| GGCAGAGCUAAACACAGCGUGGCAGAGUGGCUGUGGCUAGACUCCC [C10A A25G G44C] | 0.02 |
| GGCAGAGCUAAACACAGCGUGUCAAAGUCGCUGUGGCUAGACAGCC [C10A G22U G29C U43A] | 0 |
| GGCAGAGCUAAACACAGCGUGGUAAAGUGGCUGUGGCUAGACUGCA [C10A C23U C46A] | 0.04 |
| GGCAGAGCUAAACACAGCGUGGCAAAGUGGAUGUGGCUAAACUGCG [C10A C31A G40A C46G] | 0.02 |
| GGCAGAGCUAAAUACAGCGCGGCAAAGUGGCUGUGGCUAGACUGCC [C10A C13U U20C] | 0.02 |
| GGCAGAGCUAAACACAGCGUUGCAAAGUGGCUGUGGCUACACUGCC [C10A G21U G40C] | 0.01 |
| GGCAGAGCUAAACAUAGCGUGGCAAAGUGGCUUUGGCUAGACUUCU [C10A C15U G33U G44U C46U] | 0.02 |
| GGCAGAGCUAAAUACAGCGUGGCAAGGUGGCUGUGUCUAGACUGCC [C10A C13U A26G G36U] | 0.02 |
| GGCAGAGCUAAACACACCGUGGCAAAGUGGCUGUCGCUAGACUGCC [C10A G17C G35C] | 0.05 |
| GGCAGAGCUAAACACAGGGUGGCAAAGUGGCCUUGGCUAGACUGCC [C10A C18G U32C G33U] | 0.01 |
| GGCAGAGCUAAACACAGCGUGGCAAUGUGGAUGUGGCUAGACUACG [C10A A26U C31A G44A C46G] | 0 |
| GGCAGAGCUAAAUACAGCGUGGCAAAGUGGCUGUGGCUAGGCUGCC [C10A C13U A41G] | 0.01 |
